Where “and” joins values, the source holds several entries; their conditions need not be identical. Equal values may be shown once.
B1: EphA2 wild-type, full-length, labeled at the C-terminus with mTurquoise or eYFP (receptor)
chain: [not shown - about 500 residues]IGGVAVGVVLLLVLAGVGFFIHRRRKNQRARQSPEDVYFSKSEQLKPLKTYVDPHTYEDPNQAVLKFTTEIHPSCVTRQKVIGAGEFGEVYKGMLKTSSGKKEVPVAIKTLKAGYTEKQRVDFLGEAGIMGQFSHHNIIRLEGVISKYKPMMIITEYMENGALDKFLREKDGEFSVLQLVGMLRGIAAGMKYLANMNYVHRDLAARNILVNSNLVCKVSDFGLSRVLEDDPEATYTTSGGKIPIRWTAPEAISYRKFTSASDVWSFGIVMWEVMTYGERPYWELSNHEVMKAINDGFRLPTPMDCPSAIYQLMMQCWQQERARRPKFADIVSILDKLIRAPDSLKTLADFDPRVSIRLPSTSGSEGVPFRTVSEWLESIKMQQYTEHFMAAGYTAIEKVVQMTNDDIKRIGVRLPGHQKRIAYSLLGLKDQVNTVGIPI
B2: EphA2 G539I/A542I/G553I HR mutant, full-length, labeled at the C-terminus with mTurquoise or eYFP (receptor)
chain: [not shown - about 500 residues]IIGVIVGVVLLLVLAIVGFFIHRRRKNQRARQSPEDVYFSKSEQLKPLKTYVDPHTYEDPNQAVLKFTTEIHPSCVTRQKVIGAGEFGEVYKGMLKTSSGKKEVPVAIKTLKAGYTEKQRVDFLGEAGIMGQFSHHNIIRLEGVISKYKPMMIITEYMENGALDKFLREKDGEFSVLQLVGMLRGIAAGMKYLANMNYVHRDLAARNILVNSNLVCKVSDFGLSRVLEDDPEATYTTSGGKIPIRWTAPEAISYRKFTSASDVWSFGIVMWEVMTYGERPYWELSNHEVMKAINDGFRLPTPMDCPSAIYQLMMQCWQQERARRPKFADIVSILDKLIRAPDSLKTLADFDPRVSIRLPSTSGSEGVPFRTVSEWLESIKMQQYTEHFMAAGYTAIEKVVQMTNDDIKRIGVRLPGHQKRIAYSLLGLKDQVNTVGIPI
B3: EphA2 G540I/G544I GZ mutant, full-length, labeled at the C-terminus with mTurquoise or eYFP (receptor)
chain: [not shown - about 500 residues]IGIVAVIVVLLLVLAGVGFFIHRRRKNQRARQSPEDVYFSKSEQLKPLKTYVDPHTYEDPNQAVLKFTTEIHPSCVTRQKVIGAGEFGEVYKGMLKTSSGKKEVPVAIKTLKAGYTEKQRVDFLGEAGIMGQFSHHNIIRLEGVISKYKPMMIITEYMENGALDKFLREKDGEFSVLQLVGMLRGIAAGMKYLANMNYVHRDLAARNILVNSNLVCKVSDFGLSRVLEDDPEATYTTSGGKIPIRWTAPEAISYRKFTSASDVWSFGIVMWEVMTYGERPYWELSNHEVMKAINDGFRLPTPMDCPSAIYQLMMQCWQQERARRPKFADIVSILDKLIRAPDSLKTLADFDPRVSIRLPSTSGSEGVPFRTVSEWLESIKMQQYTEHFMAAGYTAIEKVVQMTNDDIKRIGVRLPGHQKRIAYSLLGLKDQVNTVGIPI

Target: the molecule itself
Assay: fluorescence intensity fluctuations

Stoichiometry N, ≥ 2 and 2:
B1
B2
B3

— publication doi:10.1101/2022.06.06.495010 (bioRxiv, 2022)
